According to PubChem BioAssay (NCATS):
The shares of active, inactive and inconclusive entries below differ from those in the screen. Where a call stands in place of a potency, no number is given. For part of these data: Potencies beside an inconclusive call are fits to weak or partial responses and may not hold up. Calls of active or inactive are those of the source. Unless noted, the call rests on the fitted dose curve; in most records, active means well fitted curve in the direction sought with a large enough effect; inconclusive means small, poorly fitted or top-dose-only effect, or another doubt; inactive means no such curve, though single readings can be large; an effect the other way counts as inactive or inconclusive.

Experiments:
[1] = P-glycoprotein substrates identified in KB-3-1 adenocarcinoma cell line, qHTS therapeutic library screen (AID 1346986); further: nearly all actives have a fitted effect of over 60% in size
Outline: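 Viability by CellTiter-Glo after 72 h compound exposure at 37 degree C, 5% CO2. Cytotoxic call: curve class -1.1 to -2.4, maximum response >50%, AC50 < 10 uM, compared across KB-3-1 and P-gp-overexpressing KB-8-5-11.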

[2] = tested on: Zika virus NS2B-NS3 protease (unlinked complex); assay: Primary screen GU Rhodamine qHTS for Zika virus inhibitors: Unlinked NS2B-NS3 protease assay (AID 1347159); conditions: Recombinant ZIKV NS2B-NS3 protease, Rhodamine110 substrate fluorescence; activity change, negative = inhibition: at 107 µM (top of the series); further: nearly all actives have a fitted effect of over 60% in size; further: potency means the concentration at half of the fitted maximal effect
Outline: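 Unlinked NS2B/NS3, 25 nM; Rhod110 peptide, 1.5 microM; compounds, up to 114 microM. Reaction run 15 min at RT in 10 mM Tris-HCl pH 8.0, 0.01% Tween 20; kinetic fluorescence change fitted with a 4-parameter Hill model.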

[3] = Primary qHTS for inhibitors of nuclear receptor binding SET domain protein 2 (NSD2) in an isogenic RCH-ACV NSD2 p.E1099K mutant (9B) (AID 1645876); conditions: activity change, negative = viability loss: at 44.9 µM (top of the series) unless noted; further: nearly all actives have a fitted effect of over 70% in size; further: potency means the concentration at half of the fitted maximal effect
[4] = Primary qHTS for inhibitors of nuclear receptor binding SET domain protein 2 (NSD2) in an RCH-ACV wild type WT cells (2C) (AID 1645877); conditions: activity change, negative = cell killing: at 44.9 µM (top of the series) unless noted; further: potency means the concentration at half of the fitted maximal effect; nearly all actives have a fitted effect of over 70% in size
[5] = NCATS anti-infectives library activity on HEK293 viability as a counter-qHTS vs the C. elegans viability qHTS (AID 1745854)
Outline: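 CellTiter-Glo luminescence, read on a CCD imager, scored viability of HEK293 cells after 24 hr compound exposure at 37C. Library tested in several concentrations, 1:5 steps, up to 41.7 uM; digitonin served as control.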

[6] = NCATS anti-infectives library activity on the primary C. elegans qHTS viability assay (AID 1745855; calls by dose curve)
Outline: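 Titration-based screen in worms: eggs hatched overnight in M9, L1 larvae fed TOP10 capsules in S medium with compound, incubated 21 °C for 7 days; fluorescent objects gated by size and intensity at days 0, 3 and 7.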

[7] = target: Phospholipid hydroperoxide glutathione peroxidase GPX4 (Homo sapiens) (UniProt P36969); assay: Primary qHTS Assay for Inhibitors of Recombinant Selenoprotein Glutathione Peroxidase 4 (GPX4) (AID 1845192); conditions: activity change, negative = inhibition: at 50 µM (top of the series) unless noted; further: nearly all actives have a fitted effect of over 65% in size
Chain of UniProt P36969 (P36969 whole entry, looked up): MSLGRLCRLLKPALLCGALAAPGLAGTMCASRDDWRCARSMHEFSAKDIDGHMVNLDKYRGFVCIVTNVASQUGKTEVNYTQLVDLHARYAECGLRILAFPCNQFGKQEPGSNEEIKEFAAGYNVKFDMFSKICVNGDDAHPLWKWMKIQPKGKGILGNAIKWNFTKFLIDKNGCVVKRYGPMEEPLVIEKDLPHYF
Outline: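 Steps: GPX4 plus compound, 30 min RT; add GR/GSH/NADPH master mix; start with cumene hydroperoxide; read 340/450 nm fluorescence at 0 and 15 min. Finals were 200 nM GPX4, 1 mM GSH, 0.5 mM CHP, 0.5 mM NADPH, 100 nM GR.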

SKOV3 = assay: Primary qHTS to identify gynecologic anti-cancer compounds using libraries of approved drugs and bioactive compounds (AID 1345084); conditions: Gynecologic cancer cell panel viability, ATPlite luminescence, 48 h; series mostly up to 57.5 µM; further: nearly all actives have a fitted effect of over 55% in size; further: potency means the concentration at half of the fitted maximal effect
Outline: (§1)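 Luminescence from the ATPlite ATP-monitoring reagent indicates viable cell number; lower signal means cytotoxicity. Cells received compound 16 h after seeding and were exposed for 48 h across five concentrations.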

[8] = Primary fluorescence-based thiol-reactive (MSTI) qHTS assay for identification of artifact compounds. (AID 1845221);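 further: potency means the concentration at half of the fitted maximal effect; thiol-reactive compounds lower the probe fluorescence signal; nearly all actives have a fitted effect of over 65% in size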
Outline: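 Compounds were incubated 1 h at room temperature in the dark with the MSTI probe (4 uM) in PBS pH 7.4, 2% DMSO. Signals were normalized between Acetyl-MSTI and MSTI.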

Tov112D = assay: Primary qHTS to identify gynecologic anti-cancer compounds using libraries of approved drugs and bioactive compounds (AID 1345084); conditions: Gynecologic cancer cell panel viability, ATPlite luminescence, 48 h; series mostly up to 57.5 µM; further: nearly all actives have a fitted effect of over 55% in size; further: potency means the concentration at half of the fitted maximal effect
Outline: as §1

[9] = target: Ubiquitin carboxyl-terminal hydrolase 1 (Homo sapiens) (UniProt O94782); assay: Inhibitors of USP1/UAF1: Pilot qHTS (AID 504865);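 further: rhodamine fluorescence freed from ubiquitin-rhodamine substrate followed over time; top concentration of the series differs between compounds; nearly all actives have a fitted effect of over 35% in size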
Chain of UniProt O94782 (O94782 whole entry, looked up): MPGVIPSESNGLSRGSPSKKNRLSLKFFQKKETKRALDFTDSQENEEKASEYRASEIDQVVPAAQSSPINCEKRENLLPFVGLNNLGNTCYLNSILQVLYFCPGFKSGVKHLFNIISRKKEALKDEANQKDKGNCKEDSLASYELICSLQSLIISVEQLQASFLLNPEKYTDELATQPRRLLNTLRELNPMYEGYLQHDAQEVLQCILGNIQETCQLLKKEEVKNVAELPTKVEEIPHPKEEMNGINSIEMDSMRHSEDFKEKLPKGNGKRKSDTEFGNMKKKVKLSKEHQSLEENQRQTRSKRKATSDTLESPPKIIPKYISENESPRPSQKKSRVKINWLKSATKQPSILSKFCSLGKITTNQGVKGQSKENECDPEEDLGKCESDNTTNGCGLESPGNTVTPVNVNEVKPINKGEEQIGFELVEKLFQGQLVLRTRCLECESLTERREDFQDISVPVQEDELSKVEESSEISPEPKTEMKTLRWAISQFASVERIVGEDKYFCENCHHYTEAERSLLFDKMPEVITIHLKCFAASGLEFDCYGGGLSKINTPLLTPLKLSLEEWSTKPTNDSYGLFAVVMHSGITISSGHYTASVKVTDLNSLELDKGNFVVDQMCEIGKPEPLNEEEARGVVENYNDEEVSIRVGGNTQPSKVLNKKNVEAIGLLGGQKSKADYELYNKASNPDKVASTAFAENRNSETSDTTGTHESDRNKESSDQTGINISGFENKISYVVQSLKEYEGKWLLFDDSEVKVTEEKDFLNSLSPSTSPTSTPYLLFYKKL
Outline: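 1nM USP1/UAF1 + cpd, 15 min RT; start w/ Ub-Rho 150nM final; kinetic FL 480/540 nm, 6 reads q60 s. Buffer 50mM HEPES pH 7.8, 0.5mM EDTA, 1mM TCEP, 0.01% Tween-20, 0.1 mg/ml BSA.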

[10] = S16 Schwann cell PMP22 intronic element firefly luciferase assay (AID 624032); further: nearly all actives have a fitted effect of over 30% in size
Outline: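 Rat S16 Schwann cells stably carrying firefly luciferase driven by a PMP22 intronic element, in 10% FBS, treated 24 h at 37 C. ONE-Glo luminescence normalized to PTC124 control and DMSO (0%); curves classed by r2, magnitude and activity.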

[11] = qHTS to identify inhibitors of the type 1 interferon - major histocompatibility complex class I in skeletal muscle: primary screen against the NCATS Mechanism Interrogation Plate v5.0 (MIPE) Libary (AID 1347411); conditions: iHSKM cells + IFN-b, HiBiT-tagged MHC-I luminescence, 24 h; activity change, negative = inhibition: at 45.8 µM (top of the series) unless noted; further: nearly all actives have a fitted effect of over 65% in size
Outline: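 HLA-B HiBit myoblasts, dexamethasone-free medium + 4 ng/ml IFN-b, 24 h compound, 11-pt 1:3 from 46 uM final. Readout: Nano-Glo HiBiT lytic luminescence after 10 min lysis, RT.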

[12] = Drug repurposing screens with cells derived from glioblastoma tumor samples (AID 1345199); conditions: GBM patient neurospheres viability, ATP luminescence, 48 h; Potency: tumour line A unless noted; activity, negative = cell killing: at 46 µM (top of the series), tumour line A unless noted; further: nearly all actives have a fitted effect of over 40% in size
Outline: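 Primary testing used CD133+ neurospheres from four GBM patients, seven concentrations, 48 h exposure and ATP-based viability; confirmation added three slower-growing patient lines.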

7G8 = assay: qHTS profiling for inhibitors of Plasmodium falciparum proliferation (AID 504749); further: nearly all actives have a fitted effect of over 60% in size; further: potency means the concentration at half of the fitted maximal effect; conditions: P. falciparum in erythrocytes, SYBR Green DNA, 72 h; series mostly up to 28.7 µM
Outline: (§2)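 SYBR Green fluorescence (ex 485 nm, em 535 nm) reports parasite DNA after 72 h compound exposure of infected red cells at 0.3% parasitemia, 2.5% hematocrit; signal normalized to 0.29 uM artemisinin and vehicle wells.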

CP266 = assay: as above; conditions: P. falciparum in erythrocytes, SYBR Green DNA, 72 h; activity, negative = inhibition: at 28.7 µM (top of the series)
Outline: as §2

CP268 = assay: as above; conditions: P. falciparum in erythrocytes, SYBR Green DNA, 72 h; series mostly up to 28.7 µM
Outline: as §2

CP291 = assay: as above; conditions: P. falciparum in erythrocytes, SYBR Green DNA, 72 h; series mostly up to 28.7 µM
Outline: as §2

DIV17 = assay: as above; conditions: P. falciparum in erythrocytes, SYBR Green DNA, 72 h; activity, negative = inhibition: at 28.7 µM (top of the series)
Outline: as §2

ICS = assay: as above; conditions: P. falciparum in erythrocytes, SYBR Green DNA, 72 h; series mostly up to 28.7 µM
Outline: as §2
Tags describe the fitted curve by direction and shape.

N[C@H]1C[C@H]1c1ccc(-c2cccc(O)c2)cc1
Potency [1]: inactive
Potency [2]: inconclusive: 100 µM [inhibitor, single point]
Potency [3]: inconclusive: 20.5 µM [inhibitor, partial curve, poor fit]
Potency [4]: inconclusive: 20.5 µM [inhibitor, single point]
Potency [5]: inactive
Potency [6]: inactive
Potency [7]: inactive
Potency (SKOV3): inactive

COC1OC(=O)C2=C1C1(C)CCCC(C)(C)C1CC2O (configuration not stated)
Potency [1]: inactive
Potency [2]: inactive
Potency [3]: inactive
Potency [8]: inconclusive: 23.8 µM [inhibitor, partial curve, poor fit]
Potency (SKOV3): inconclusive: 11.2 µM [rising, partial curve, poor fit]
Potency (Tov112D): inactive

CO[C@H]1C[C@@H]2CC[C@@H](C)[C@@](O)(O2)C(=O)C(=O)N2CCCC[C@H]2C(=O)O[C@H]([C@H](C)C[C@@H]2CC[C@@H](OC(=O)C(C)(CO)CO)[C@H](OC)C2)CC(=O)[C@H](C)/C=C(\C)[C@@H](O)[C@@H](OC)C(=O)[C@H](C)C[C@H](C)/C=C/C=C/C=C/1C
Potency [9]: inactive
Potency [10]: inactive
activity change, negative = inhibition [11]: inconclusive: -31.2% [inhibitor] [at 15.5 µM]
Potency [3]: inconclusive: 0.0103 µM [inhibitor, full curve]
Potency [4]: inconclusive: 0.0046 µM [inhibitor, full curve]
Potency (SKOV3): inconclusive: 10 µM [cytotoxic, partial curve, poor fit]
Potency [12]: inactive
Potency (7G8): inactive
Potency (CP266): inconclusive: 0.239 µM [inhibitor, full curve]
Potency (CP268): inactive
Potency (CP291): inactive
Potency (DIV17): inactive
Potency (ICS): inactive
